89 molecules from PubChem BioAssay AID463173 (ICCB-Longwood Screening Facility, Harvard Medical School, 2010) can be followed below.

SMILES strings stand for the structures. The campaign covered roughly 52,000 compounds. About 1,700 (3.3%) were called active. Cut-off read from the data, not from the text of the source: active = survival mostly below about 52% (no sharp cut-off); inactive = mostly above about 56%. The list shows a part of the results.

For the test, the system named is Wild type. Briefly: growth inhibition of S. aureus wild type versus tarO mutant, primary screen, teichoic acid synthesis inhibitors, RN4220, OD600 (AID 463173). The conditions noted are these: S. aureus RN4220 wild type/DeltatarO growth, OD600, 18 h, hits give low values, screened at 18.75 µg/mL (by protocol).
Consider `COc1ccc(-n2cc(-c3ccccc3)c3c(N4CCCC(C)C4)ncnc32)cc1` (centres undefined), for which the survival was inactive: 68%.

Regarding `Cn1cc(CCCC(=O)NCc2cccc(Br)c2)c2ccccc21`, the survival is inactive: 77%.

Turning to `O=C(CS(=O)(=O)c1cccc2nsnc12)NCc1ccccc1Cl`, the survival was inactive: 136%.

On to `Cc1ccc(CN2c3ccccc3-c3nc(SCC(=O)NCc4ccccc4)ncc3S2(=O)=O)cc1`, for which the survival is active: -1%.

Turning to `Cc1ccc(N(CC(=O)Nc2ccc(F)cc2F)S(=O)(=O)c2cccs2)cc1`, the survival is inactive: 82%.

As for `CN(C)C(=O)CN(C#N)c1nc(Cl)nc(N(C)C)n1`, the survival was inactive: 110%.

`CCC(=O)C1=C(c2ccccc2)N(C(=O)CC)n2c(nnc2-c2ccccc2)S1`: the survival was active: -6%.

Regarding `COc1ccc(S(=O)(=O)NNc2ncnc3sc4c(c23)CCCC4)cc1`, the survival was inactive: 121%.

As to `Cc1c(NC=C(C#N)C#N)c(=O)n(-c2ccccc2)n1C`, the survival is inactive: 111%.

Turning to `Cc1ccc(S(=O)(=O)NCCc2nnc3ccc(SCc4ccccc4F)nn23)cc1`, the survival is inactive: 75%.

Consider `CCn1c(C)nc2cc(Cl)ccc21`, for which the survival is inactive: 101%.

For the molecule `Cc1ccc(NC(=O)c2oc3ccc(S(=O)(=O)N4CCCCC4)cc3c2C)c(C)c1`, the survival is inactive: 127%.

Regarding `CCCCCCc1cc2cc(-c3nnc(-c4cccc(Cl)c4)o3)c(=O)oc2cc1O`, the survival is inactive: 72%.

As for `Cc1cccc(N2CCN(C(=O)C(C)n3nc(C)n4c(cc5occc54)c3=O)CC2)c1C` (centres undefined), the survival was inactive: 84%.

`Cc1cc(C)c(NC(=O)CN2C(=O)C3(SCC(=O)N3c3ccc(F)cc3)c3ccccc32)c(C)c1` (centres undefined): the survival is inactive: 64%.

For the molecule `Cc1cc(C)c(NC(=O)c2c(C)oc3c2C2=NCCN2C=N3)c(C)c1`, the survival was inactive: 77%.

`CCc1ccc(CNC(=O)Cn2nc(-c3ccc(Cl)cc3)ccc2=O)cc1`: the survival was inactive: 71%.

Take `COc1ccc(C2c3c(n(C)c4ccccc34)C(=O)N2CC(=O)Nc2ccc(C)cc2Cl)cc1` (centres undefined): the survival is inactive: 55%.

As for `CCN(CC)S(=O)(=O)c1ccc(-c2csc(=Nc3cccc(C(F)(F)F)c3)n2Cc2ccc3c(c2)OCO3)cc1`, the survival is inactive: 159%.

With `O=C(CC1CCCCC1)N1CCN(c2ccccc2)CC1`, the survival is inactive: 102%.

For `Cc1ccc(S(=O)(=O)N2CCCc3cc(NS(=O)(=O)c4ccc(F)cc4)ccc32)cc1`, the survival is inactive: 81%.

Consider `CN(C)c1ccc(CNC(=O)C2CCN(S(=O)(=O)c3ccc4c(c3)oc(=O)n4C)CC2)cc1`, for which the survival is inactive: 87%.

For the molecule `COc1cccc(NC(=O)Cn2c(=O)n(Cc3ccc(C(=O)NCc4ccc5c(c4)OCO5)cc3)c(=O)c3ccccc32)c1`, the survival was inactive: 103%.

For `CC(=O)Nc1ccc(Oc2ccccc2)cc1`, the survival is inactive: 102%.

`CCc1ccc(-c2cc(C)no2)cc1S(=O)(=O)NCc1ccco1`: the survival is inactive: 76%.

On to `CC1=CC(C)C2(COC(=O)Nc3ccccc3)COC(C)C1C2C` (centres undefined), for which the survival is inactive: 128%.

In the case of `CCC(Oc1ccc(F)cc1)C(=O)Nc1nc2c(s1)CCCC2` (centres undefined), the survival is inactive: 76%.

In the case of `COc1ccc(C(=O)N2c3nc(-c4ccco4)nn3C3(CCCCC3)[C@@H]3CCCC[C@@H]32)cc1OC`, the survival is inactive: 81%.

As for `O=C(NC1CCCCC1)c1ccc(Cn2c(SCc3ccccc3)nc3cccnc32)cc1`, the survival is inactive: 82%.

In the case of `O=C(Nc1ccc(F)cc1)c1oc2ccccc2c1NC(=O)C1CCCCC1`, the survival was inactive: 14%.

`Cc1cccc(C(=O)N2CCCCC2CCN2CCCCC2)c1` (centres undefined): the survival was inactive: 86%.

Take `CC(=O)N(C(C)=O)c1ccc(C)cc1`: the survival was inactive: 104%.

For the molecule `COCCCn1c(=O)c2sccc2n2c(CCCC(=O)Nc3ccc(F)c(F)c3)nnc12`, the survival is inactive: 81%.

On to `Cc1ccc2nc(NC(=O)c3ccc(S(=O)(=O)N4CCCc5ccccc54)cc3)sc2c1`, for which the survival was inactive: 148%.

In the case of `Nc1c(C(=O)Nc2cccc(F)c2)sc2nc(-c3cccs3)ccc12`, the survival was inactive: 84%.

With `COc1ccc(CNC(=O)CCC2N=C3c4ccccc4N=C(SCc4ccc(F)cc4)N3C2=O)cc1` (centres undefined), the survival is inactive: 82%.

As for `O=C(C1CCCCC1)N(Cc1cccnc1)c1nc2c(F)cc(F)cc2s1`, the survival was inactive: 92%.

`COc1ccc(OC)c(NC(=O)c2c(NCc3ccc(OC)c(OC)c3)sc3c2CCC(C)C3)c1` (centres undefined): the survival is inactive: 73%.

For the molecule `CCN1CCOC(=O)C1CC(=O)Nc1ccc(C)c(Cl)c1` (centres undefined), the survival was inactive: 42%.

Consider `Cn1c(=O)c2c(n(C)c1=O)=NC1(CCCCC1)N=2`, for which the survival was inactive: 101%.

On to `Cc1cc(C)nc(NS(=O)(=O)c2ccc(NC(=O)c3cc(=O)c4ccc(C)c(C)c4o3)cc2)n1`, for which the survival was inactive: 91%.

Take `CN1CCN(C2(CNC(=O)c3ccc([N+](=O)[O-])cc3)CCCCC2)CC1`: the survival is inactive: 108%.

For the molecule `CCCc1c(C)nc(N)c(C#N)c1-c1ccc(OC)c(OC)c1`, the survival was inactive: 101%.

Take `Cc1ccccc1-c1nc2scc(CCNC(=O)C(=O)Nc3ccc(F)cc3F)n2n1`: the survival is active: -4%.

Regarding `O=C(CSc1nc2c([nH]c3ccccc32)c(=O)n1-c1ccccc1)c1ccc(Cl)cc1`, the survival was inactive: 76%.

Take `C=Cc1ccc(Cn2c(C(=O)O)c(CNCCc3ccccc3)c3ccc(C)cc32)cc1`: the survival is inactive: 69%.

With `COc1cc(NS(=O)(=O)c2ccc3[nH]c4c(c3c2)CCCC4)cc(OC)c1OC`, the survival was inactive: 129%.

For `CCCn1c(CCC(=O)Nc2cccc(C)c2C)nc2cccnc21`, the survival was inactive: 123%.

Consider `Nc1c(C(=O)NCCc2ccccc2)nnn1CC(=O)Nc1ccc(Cl)cc1`, for which the survival is inactive: 75%.

As to `Cc1ccccc1OCCCCn1c(C2CC(=O)N(c3ccccc3Cl)C2)nc2ccccc21` (centres undefined), the survival was inactive: 59%.

Regarding `Cc1ccc(Nc2c(-c3ccc(N4CCOCC4)cc3)nc3c(C)cccn23)cc1`, the survival was inactive: 83%.

Turning to `CCN(CC)/C(=N/OCc1ccc(Cl)cc1Cl)c1nonc1N`, the survival was inactive: 100%.

Consider `CCOC(=O)C1CCCN(c2c(C(=O)c3ccc(C)cc3)cnc3ccc(OCC)cc23)C1` (centres undefined), for which the survival is active: 2%.

As to `COc1ccc(CC(=O)Nc2ccc3nc(Nc4cccc(Cl)c4)cc(C)c3c2)cc1`, the survival was inactive: 88%.

On to `CC1(c2ccc(Cl)cc2Cl)OCC(Cn2cncn2)O1` (centres undefined), for which the survival is inactive: 114%.

Regarding `COCCn1c(SCC(=O)Nc2cccc(C)c2C)nc2c(oc3ccccc32)c1=O`, the survival is inactive: 123%.

Consider `Cc1cc(-c2ccc(S(=O)(=O)Nc3cc(Cl)ccc3C)s2)on1`, for which the survival is inactive: 134%.

Regarding `COc1ccc(CCNC(=O)c2cc3c(-c4ccc(OC)c(OC)c4)nn(C)c3s2)cc1OC`, the survival is inactive: 103%.

`Cc1oc2ncn(C)c(=O)c2c1C(=O)N(Cc1ccccc1)C(C)C`: the survival was inactive: 99%.

For `Cc1ccc(Cl)cc1N1CCN(C(=O)c2ccc(CS(=O)(=O)c3ccc(Br)cc3)o2)CC1`, the survival is inactive: 84%.

Consider `Cc1cc(C)nc(SCCC(=O)N(C)C)n1`, for which the survival was inactive: 108%.

On to `Cc1ccc(Cl)cc1N1CCN(C(=O)CCn2c(=O)c3cccn3c3cccnc32)CC1`, for which the survival was inactive: 37%.

Turning to `CCOC(=O)c1c(C)[nH]c(CCC(=O)NCc2cccc(OC)c2)c1C`, the survival was inactive: 68%.

In the case of `Cc1oc2ccc(O)c(CN3CCCCC3C)c2c1C(=O)Nc1ccccc1` (centres undefined), the survival is inactive: 88%.

For `O=C(CCc1ccccc1)N1CCc2c([nH]c3ccccc23)C1c1ccc(Cl)cc1` (centres undefined), the survival is inactive: 70%.

Consider `COc1ccc(C(CNC(=O)Cc2ccc(Cl)cc2)N2CCOCC2)cc1` (centres undefined), for which the survival is inactive: 78%.

Regarding `O=C(CSc1nc(=O)n(CCN2CCOCC2)c2c1CCC2)Nc1cccc(Cl)c1`, the survival was inactive: 80%.

Regarding `O=C(CC(c1cccs1)N1Cc2ccccc2C1=O)Nc1ccc(F)cc1F` (centres undefined), the survival is inactive: 65%.

As to `Cc1cccc(CC(=O)NC2CC(=O)N(c3ccccc3)C2)c1` (centres undefined), the survival was active: -6%.

On to `Cc1ccc(O)c(NC(=O)c2cc(-c3ccc(F)cc3)on2)c1`, for which the survival is inactive: 78%.

For the molecule `Cc1cc2c(cc3c(SCc4cccc(F)c4)nnc(C)n32)o1`, the survival was inactive: 102%.

Take `Cc1cccc(C(=O)N2CCC(N3CCN(Cc4ccc(F)cc4)C(=O)C3=O)CC2)c1`: the survival was inactive: 110%.

On to `Cc1ccc(C2=CC(c3ccc(Cl)cc3)n3nc(-c4ccc(C)cc4)nc3N2)cc1` (centres undefined), for which the survival is active: 1%.

Take `CC(C)c1ccc(C2c3c(oc4ccc(Cl)cc4c3=O)C(=O)N2CCCN2CCOCC2)cc1` (centres undefined): the survival was inactive: 93%.

On to `COc1cc(NC(=O)CN2C(=O)C(c3ccc(Cl)cc3)=NC23CCCCC3)cc(OC)c1`, for which the survival was inactive: 84%.

In the case of `COc1ccc(NC(=O)CCc2nc3cccnc3n2-c2ccccc2)cc1Cl`, the survival was inactive: 83%.

Regarding `Cc1ccccc1CSCCNC(=O)C1CCN(S(=O)(=O)Cc2ccccc2)CC1`, the survival is inactive: 109%.

For `COC(=O)c1ccc(Cl)cc1NC(=O)NC(C)c1c(-n2cccc2)sc(C)c1C` (centres undefined), the survival was active: 12%.

Turning to `O=c1c2c3c(sc2n(Cc2ccccc2F)c(=O)n1-c1ccc(Cl)cc1)CCCC3`, the survival is inactive: 95%.

As to `CNC(=O)C1CCC(Cn2c(=O)c3sccc3n(CC(=O)N3CCC(C)CC3)c2=O)CC1` (centres undefined), the survival is inactive: 49%.

Regarding `Cc1ccc(-n2ncc(C(=O)NCc3ccco3)c2C2CCN(C(=O)OC(C)(C)C)CC2)cc1`, the survival is inactive: 70%.

`Cc1cc(C)c(Cn2c(=O)n(CCCC(=O)NCc3ccc4c(c3)OCO4)c(=O)c3sccc32)c(C)c1`: the survival was inactive: 92%.

For `Cc1ccc2nc(Cl)c3cc(C(=O)N4CCCCC4)sc3c2c1`, the survival is active: -2%.

Regarding `COC(=O)c1cc(S(=O)(=O)NCC2CCN(Cc3cccc(F)c3)CC2)cn1C`, the survival is inactive: 124%.

Turning to `Cn1c(=O)c2c(-c3ccc(Cl)cc3)n(CCc3ccccc3)cc2n(C)c1=O`, the survival was inactive: 134%.

For the molecule `COc1ccc(N2CCN(Cc3nc4c(c(=O)[nH]c(=O)n4C)n3Cc3ccccc3F)CC2)cc1`, the survival is inactive: 130%.

Take `COc1ccc(CCNC(=O)c2cc(=O)c3cc(C)c(C)cc3o2)cc1OC`: the survival was inactive: 85%.

As for `COc1ccc(N(C(=O)Cn2nnc3ccccc32)C(C(=O)NCc2ccccc2)c2ccc(F)cc2)cc1` (centres undefined), the survival is inactive: 84%.

As for `Cn1nnc2c(NCc3c(F)cccc3F)ncnc21`, the survival was inactive: 66%.
